# ± gives the standard deviation of the averaged measurements. The list shows a part of the results.
# System: PfAP2-LT AP2 domain (GST-tagged)
# Assay: gcPBM binding intensity (ln(normalized median fluorescence intensity)); higher = stronger DNA binding
# Summary of the method: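 In this array assay, P. falciparum DNA-binding domains with a GST tag, expressed in E. coli, were applied for 1 h to primer-extended double-stranded 36-bp intergenic genomic probes and negative controls on an Agilent 4 × 180k array. Bound protein was visualised with Alexa488 anti-GST antibody at 488 nm. Binding intensity is the highest Masliner-normalised natural-log median intensity across replicate spots of either probe orientation.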
row,Sequence,gcPBM binding intensity (ln)
1,TAAAAAAAGAAAAAAAGTACATGCTACTTTTATGAT [XGTACX_site7818],8.5 ± 0.42
2,GGAATATAAATACATACACACATATATATATATATA [CACACA_site4998],10 ± 0.33
3,TATAATAAATCAAATGCACACACACTAATAAAAAAA [CACACA_site7937],9.63 ± 0.35
4,TGTTGTTATAAAAAAAAAAAAAAAAAAAAAAAAAAA [GTGCAC_negctrl_site230],7.89 ± 0.39
5,TGTGGTTTTTATAATTGTACATATATATAAATCTAT [XGTACX_site4766],8.78 ± 0.33
6,ATATAAAATAAATAAGTGCAGATAAATTTATGTGAC [GTGCAC_site9504],9.11 ± 0.54
7,TATATATTATATATATGTACTTATTTATTAATTTAT [XGTACX_site5253],8.61 ± 0.47
8,TACATGCTTATTTTAACACACAAATGGTAGTAATAA [CACACA_site766],8.84 ± 0.46
9,ATGAATATTTACAATCTTATTATGTTCAAAATTAAT [CACACA_negctrl_site592],8.38 ± 0.46
10,TGAATGCTTTTATGCACACGTACAAAAATATTATAT [CACACA_site2668],8.82 ± 0.33
11,AATAAAAATAACCTAACATGCAAAAAAAAAAAAAAA [TGCATGCA_site718],8.72 ± 0.61
12,GTCATTAAAAAAATATGTACTTAAATGTATGCATAT [XGTACX_site5951],8.7 ± 0.42
13,ATGAATGTCCCAAGATGTACAATTATATATAACACA [XGTACX_site4702],8.69 ± 0.42
14,AAATCCTTATTTTTTTGTACGTAATATTTTATATGG [XGTACX_site1530],8.71 ± 0.44
15,TAATAAATAAGACACACACACATATATATATATTAT [CACACA_site1389],9.8 ± 0.2
16,GAGTAAAAATTAAAATGTACATATTATATATATTTA [XGTACX_site1319],8.58 ± 0.45
17,AGTAAATAACACAAATATGAATGAAAAAAAAAATAT [GTGCAC_negctrl_site235],9.01 ± 0.49
18,TGTGCGGAAATAAGTGCACACATAGATATCTGTATT [CACACA_site5935],9.25 ± 0.31
19,CAACTTATTAAAAGTCGTACAAATGGGAAGAAGGAA [XGTACX_site6325],8.8 ± 0.36

row,Sequence,gcPBM binding intensity (ln)
1,CGTATGAGTAAATACACACCCACGTATATATATAAA [CACACA_site5728],8.94 ± 0.4
2,ATATATATATAGTACGCACACATAGTTGTACATTAA [CACACA_site2787],9.29 ± 0.22
3,TTATACAACAAGAAAATTATAAAATGTAACATATAT [GTGCAC_negctrl_site406],8.68 ± 0.44
4,ATATTAATATAATGTGCATGTTCAATGATCTTTTTA [TGCATGCA_site22],8.69 ± 0.42
5,ATAATTATTAATATAGTGCATTGGCATAATAATATA [GTGCAC_site9810],8.69 ± 0.39
6,TACAAATATATATGCACACACATATATGTATATGTG [CACACA_site3075],9.62 ± 0.28
7,TATTTTTTAACACAACGTACATATAAAAAATATTTA [XGTACX_site6025],8.31 ± 0.38
8,TTAGATATAATATATACACACCAACGAACGAAGAAA [CACACA_site4763],9.12 ± 0.4
9,TTCTTTTCTCTTTTAATCATATTATATAAATGAATA [CACACA_negctrl_site820],8.31 ± 0.52
10,AAAAAAATTTATTAAAGTACTAGATAATCATATAAA [XGTACX_site1455],8.37 ± 0.53
11,ATATATAAAAAAGCTAGTACACAAAAATATATAATG [XGTACX_site3001],8.95 ± 0.54
12,AAAAATTTTATATTCACACACATATTTATATTTATA [CACACA_site6439],8.95 ± 0.35
13,ATTATAAATAAATATTGTACTTATATGATCTATTTG [XGTACX_site3820],8.53 ± 0.57
14,AGAATAATATAATAAAGTACAAACCTATCTAACTAC [XGTACX_site5477],9.05 ± 0.45
15,CCTTTCACATATAATACATGCATTATTATATATGAA [TGCATGCA_site287],8.7 ± 0.23
16,ATTGCATTTGTAGATAATACAATATGGATTGTTATA [CACACA_negctrl_site1749],8.59 ± 0.3
17,GGATATATTATATGTACACACACATATAAGGGATTA [CACACA_site7884],9.34 ± 0.31
18,AATATATAAATTAATACATGCACATATAGAAAGGGA [TGCATGCA_site472],9.23 ± 0.49
19,CTTTTTACTTAATACACACACACACTAGAAAAAAAA [CACACA_site4680],9.59 ± 0.16

row,Sequence,gcPBM binding intensity (ln)
1,TATCAAAATTAGTATACACACAAAATTATTCAAATA [CACACA_site2232],8.78 ± 0.52
2,TAAAAGGAAAAAAAAGCACACACAATATTACTTGAA [CACACA_site8831],9.25 ± 0.41
3,TATACATATAAATTGTGTACACATATATATATATTT [XGTACX_site7875],8.96 ± 0.39
4,AAAAAAAAAAAAAGGTGTACATAAGTAAATTCATAT [XGTACX_site4206],8.87 ± 0.56
5,AACCAATATGTGTATACACACATAAATATAAATATA [CACACA_site7729],9.43 ± 0.45
6,CTTTTCTTTTTTTTTTGTACATAAAATTATTCCTTA [XGTACX_site3924],8.64 ± 0.59
7,TTTTGTTGCTCTTTTTTTTTTTTTTTTAACTGTATG [CACACA_negctrl_site1072],8.74 ± 0.59
8,AATATAGTCACACATACACACATATAGATTTATATA [CACACA_site7223],9.27 ± 0.4
9,TTATTTTGTTTTAAAAGTACACACTTTTAATTAGAT [XGTACX_site2271],8.66 ± 0.41
10,ATAATAAGCAAACACACACACACAAAAAAAAAAAAA [CACACA_site720],9.92 ± 0.58
11,TATATAAACACGTACACACACATATAGGTATTTATA [CACACA_site7615],9.47 ± 0.36
12,ACAGAATACATATACACACATACAAAAAAGTGCATA [CACACA_site987],9.29 ± 0.32
13,CATTATGTTGTAAATGCACACATACATATACACAGT [CACACA_site8990],9.23 ± 0.33
14,TCATACTGTATATTTTGTACTTATATATATATTATA [XGTACX_site6136],8.98 ± 0.44
15,TTTGCTTCCAAAAGTCGTACAAAAAATATTAAATAT [XGTACX_site4171],8.32 ± 0.37
16,TACAAAAGCGATACGGCACACATTTCCTGTTTAAAT [CACACA_site2746],9.09 ± 0.37
17,AAAAGATTGCTCCGCATGCACCTCCAAAAGTTCCTT [GTGCAC_site9993],8.7 ± 0.33
18,TATTTATATTTATATACACACATACATATTTATATT [CACACA_site6535],9.1 ± 0.4

# From the supplement of paper PMC11417369
